Positions count from the first letter of the chain named.
B1: ADC-1 (antibody, human IgG1, kappa)
heavy: EVQLVQSGAEVKKPGASVKVSCKASGYTFTSYWMHWVRQAPGQRLEWMGMIHPNSGSTNYNEKFKGRVTITRDTSASTAYMELSSLRSEDTAVYYCARLKTGNSFDYWGQGTTVTVSS[… human IgG1 constant region …]
light: DIVLTQSPDSLAVSLGERATINCKSSQSLLNSGNQKNYLTWYQQKPGQPPKLLIYWASTRESGVPDRFSGSGSGTDFTLTISSLQAEDVAVYYCQNAYTYPFTFGQGTKLEIKRTVAAPSVFIFPPSDEQLKSGTASVVCLLNNFYPREAKVQWKVDNALQSGNSQESVTEQDSKDSTYSLSSTLTLSKADYEKHKVYACEVTHQGLSSPVTKSFNRGEC
modifications: compound 9-A coupled to sulfhydryl groups after TCEP reduction; mean drug loading n=6.8 per antibody; positions not given
B2: h1902-6 (antibody, human IgG1, kappa)
heavy: B1 heavy with I70L, R72L, T74K
light: B1 light
notes: Humanized antibody of mAb1902, L12 + H12, human IgG1/kappa
B3: h1902-1 (antibody, human IgG1, kappa)
heavy: B1 heavy
light: B1 light with L4M
B4: h1902-2 (antibody, human IgG1, kappa)
heavy: B1 heavy with I70L, R72L, T74K
light: B1 light with L4M
notes: Humanized antibody of mAb1902, L11 + H12, human IgG1/kappa
B5: h1902-3 (antibody, human IgG1, kappa)
heavy: B1 heavy with M48I, R67K, V68A, I70L, R72L, T74K
light: B1 light with L4M
notes: Humanized antibody of mAb1902, L11 + H13, human IgG1/kappa
B6: h1902-4 (antibody, human IgG1, kappa)
heavy: B1 heavy with R38K, A40R, M48I, R67K, V68A, I70L, R72L, T74K
light: B1 light with L4M
notes: Humanized antibody of mAb1902, L11 + H14, human IgG1/kappa
B7: h1902-5 (antibody, human IgG1, kappa)
heavy: B1 heavy
light: B1 light
notes: Humanized antibody of mAb1902, L12 + H11, human IgG1/kappa
B8: h1902-7 (antibody, human IgG1, kappa)
heavy: B1 heavy with M48I, R67K, V68A, I70L, R72L, T74K
light: B1 light
notes: Humanized antibody of mAb1902, L12 + H13, human IgG1/kappa
B9: h1902-8 (antibody, human IgG1, kappa)
heavy: B1 heavy with R38K, A40R, M48I, R67K, V68A, I70L, R72L, T74K
light: B1 light
notes: Humanized antibody of mAb1902, L12 + H14, human IgG1/kappa
B10: h1902-9 (antibody, human IgG1, kappa)
heavy: B1 heavy
light: B1 light with N22S
notes: Humanized antibody of mAb1902, L13 + H11, human IgG1/kappa
B11: h1902-10 (antibody, human IgG1, kappa)
heavy: B1 heavy with I70L, R72L, T74K
light: B1 light with N22S
notes: Humanized antibody of mAb1902, L13 + H12, human IgG1/kappa
B12: ADC-6 (antibody, human IgG1, kappa)
heavy: B1 heavy
light: B1 light
modifications: compound 9-A coupled to sulfhydryl groups after TCEP reduction; mean drug loading n=2.69 per antibody; positions not given
B13: ADC-7 (antibody, human IgG1, kappa)
heavy: B1 heavy
light: B1 light
modifications: compound 9-A coupled to sulfhydryl groups after TCEP reduction; mean drug loading n=4.25 per antibody; positions not given
B14: ADC-8 (antibody, human IgG1, kappa)
heavy: B1 heavy
light: B1 light
modifications: compound 9-A coupled to sulfhydryl groups after TCEP reduction; mean drug loading n=7.01 per antibody; positions not given
B15: h1901-6 (antibody, human IgG1, kappa)
heavy: EVQLVESGGGLVQPGGSLRLSCAASGFTFSDYGIHWVRQAPGKGLEWVAYISRGSSTIYYADTVKGRFTISRDNAKNSLYLQMTSLRAEDTAVYYCARGGYDTRNAMDYWGQGTTVTVSS[… human IgG1 constant region …]
light: B1 light with L4M, N22S, T40A, W56G, E61A, A97D, Y98L, T99Y, F102L
notes: Humanized antibody of mAb1901, L2 + H2, human IgG1/kappa
B16: h1901-2 (antibody, human IgG1, kappa)
heavy: B15 heavy
light: B1 light with L4M, T40A, W56G, E61A, A97D, Y98L, T99Y, F102L
B17: h1901-3 (antibody, human IgG1, kappa)
heavy: B15 heavy with V48I
light: B1 light with L4M, T40A, W56G, E61A, A97D, Y98L, T99Y, F102L
notes: Humanized antibody of mAb1901, L1 + H3, human IgG1/kappa
B18: h1901-4 (antibody, human IgG1, kappa)
heavy: B15 heavy with I70M
light: B1 light with L4M, T40A, W56G, E61A, A97D, Y98L, T99Y, F102L
notes: Humanized antibody of mAb1901, L1 + H4, human IgG1/kappa
B19: h1901-7 (antibody, human IgG1, kappa)
heavy: B15 heavy with V48I
light: B1 light with L4M, N22S, T40A, W56G, E61A, A97D, Y98L, T99Y, F102L
notes: Humanized antibody of mAb1901, L2 + H3, human IgG1/kappa
B20: h1901-8 (antibody, human IgG1, kappa)
heavy: B15 heavy with I70M
light: B1 light with L4M, N22S, T40A, W56G, E61A, A97D, Y98L, T99Y, F102L
notes: Humanized antibody of mAb1901, L2 + H4, human IgG1/kappa

Legend:
[1] = molecular target: human Claudin18.2 (human); assay: cell-based or functional assay
[2] = molecular target: T1, human Claudin18.2 (human); assay: cell-based ELISA on fixed NUGC4 cells stably expressing Claudin18.2
T1 construct: also called hClaudin18.2; huClaudin18.2
Procedure: (§1) Cell-based ELISA assay was used to test the binding properties of the Claudin18.2 antibodies. The stably transfected Claudin18.2-expressing NUGC4 cells were cultured in a 96-well cell plate (Corning, 3599). When growing at 90% density, the cells were immobilized with 4% paraformaldehyde for 1 h. The plate was washed 3 times with PBST buffer (pH 7.4 PBS containing 0.05% Tween-20), and a PBS-diluted 5% skim milk (powdered skim milk from Brightdairy) blocking solution was added at 200 μL/well. The plate was incubated in a 37° C. incubator for 2.5 h or was let stand at 4° C. overnight (16-18 h) for blocking. After blocking, the blocking solution was removed. The plate was washed 3 times with the PBST buffer, and then a test antibody that was diluted with a sample diluent (pH 7.4 PBS containing 1% skim milk) to different concentrations was added at 50 μL/well. The plate was incubated in a 37° C. incubator for 2 h. […] The plate was incubated at 37° C. for 1 h. The plate was washed 6 times with PBST, and then TMB chromogenic substrate (KPL, 52-00-03) was added at 50 µL/well. The plate was incubated at room temperature for 10-15 min, and the reaction was terminated by adding 1 M H₂SO₄ at 50 μL/well. The absorbance at 450 nm was read using an MD Versa Max™ microplate reader, and the binding EC50 value of the Claudin18.2 antibody to Claudin18.2 was calculated.

[3] = molecular target: T1, human Claudin18.2; assay: cell-based ELISA (absorbance at 450 nm) on fixed NUGC4 cells stably expressing Claudin18.2
Procedure: as §1

[4] = molecular target: T1, human Claudin18.2; assay: cell-based or functional assay; remark: listed apart in the source
[5] = molecular target: T1, human Claudin18.2; assay: flow cytometry on HEK293/hClaudin18.2 cells, Scatchard plot
Procedure: On the day of experiment, HEK293/hClaudin18.2 cells were collected into a U-bottomed 96-well plate at 1×10⁵ to 2×10⁵ cells per well. A human Claudin18.2 antibody that was 2× diluted serially (12 concentration points) from an initial concentration of 5 μg/mL was added, and the plate was incubated at 4° C. for 1 h. IMAB362 was used as a positive control, and a negative control with no antibody was also provided. The antibody was removed by centrifugation, and FITC anti-human IgG Fc antibody (200×) was added at 100 μL/well. The plate was incubated in the dark at 4° C. for 30 min and washed twice with PBS+2% FBS before flow cytometry analysis. BD FACS CantoII was started and preheated, and then the BD FACSDiva software was run to start a new experiment. […] The samples in the U-bottomed 96-well plate were tested at the saved voltage, and data were recorded. The experimental data were analyzed using Flowjo software to obtain a Geo mean, and an MESF-Geo Mean standard curve was fit according to the instructions for Quantum™ FITC-5 MESF Kit. The molar concentration of the human Claudin18.2 antibody bound to HEK293/hClaudin18.2 cells and the free antibody concentration were calculated according to the concentration fluorescence value of the FITC anti-human IgG Fc antibody, and the Bmax and the dissociation constant KD of the antibody were calculated through Scatchard plots.

| Binder | EC50 [2] | Emax [3] | also measured |
| --- | --- | --- | --- |
| B1 | – | – | in vitro cell killing EC50, NUGC4-claudin18.2 high expression cells (CellTiter-Glo) [1]: 1300 pM; in vitro cell killing EC50, NUGC4-claudin18.2 moderate expression cells (CellTiter-Glo) [1]: 23600 pM; in vitro cell killing Emax, NUGC4-claudin18.2 high expression cells (CellTiter-Glo) [1]: 91.5; in vitro cell killing Emax, NUGC4-claudin18.2 low expression cells (CellTiter-Glo) [1]: 66.7 |
| B2 | 141 pM | 0.78 | – |
| B3 | 113 pM | 0.87 | – |
| B4 | 107 pM | 0.88 | – |
| B5 | 175 pM | 0.84 | – |
| B6 | 87 pM | 0.82 | – |
| B7 | 98 pM | 0.9 | ADCC effect, IC50 (FcrR3A-V158-NFAT-RE-Jurkat reporter; NUGC4 cells, high Claudin18.2 expression) [4]: 0.0322 µg/mL; ADCC effect, IC50 (FcrR3A-V158-NFAT-RE-Jurkat reporter; NUGC4 cells, low Claudin18.2 expression) [4]: 0.0355 µg/mL; ADCC effect, IC50 (FcrR3A-V158-NFAT-RE-Jurkat reporter; NUGC4 cells, moderate Claudin18.2 expression) [4]: 0.03 µg/mL; Kd [5]: 1640 pM |
| B8 | 121 pM | 0.75 | – |
| B9 | 132 pM | 0.89 | – |
| B10 | 137 pM | 0.75 | – |
| B11 | 133 pM | 0.89 | – |
| B12 | – | – | in vitro cell killing EC50, NUGC4-claudin18.2 high expression cells (CellTiter-Glo) [1]: 11000 pM; in vitro cell killing EC50, NUGC4-claudin18.2 low expression cells (CellTiter-Glo) [1]: > 500000 pM; in vitro cell killing Emax, NUGC4-claudin18.2 high expression cells (CellTiter-Glo) [1]: 78; in vitro cell killing Emax, NUGC4-claudin18.2 low expression cells (CellTiter-Glo) [1]: 45.2 |
| B13 | – | – | in vitro cell killing EC50, NUGC4-claudin18.2 high expression cells (CellTiter-Glo) [1]: 3900 pM; in vitro cell killing EC50, NUGC4-claudin18.2 low expression cells (CellTiter-Glo) [1]: 284000 pM; in vitro cell killing Emax, NUGC4-claudin18.2 high expression cells (CellTiter-Glo) [1]: 88.5; in vitro cell killing Emax, NUGC4-claudin18.2 low expression cells (CellTiter-Glo) [1]: 61.1 |
| B14 | – | – | in vitro cell killing EC50, NUGC4-claudin18.2 high expression cells (CellTiter-Glo) [1]: 1300 pM; in vitro cell killing EC50, NUGC4-claudin18.2 low expression cells (CellTiter-Glo) [1]: 154000 pM; in vitro cell killing Emax, NUGC4-claudin18.2 high expression cells (CellTiter-Glo) [1]: 97.2; in vitro cell killing Emax, NUGC4-claudin18.2 low expression cells (CellTiter-Glo) [1]: 66.7 |
| B15 | 91 pM | 0.937 | – |
| B16 | 76 pM | 1.04 | – |
| B17 | 220 pM | 1.11 | – |
| B18 | 201 pM | 0.986 | – |
| B19 | 166 pM | 0.921 | – |
| B20 | 91 pM | 1.05 | – |

Source: patent publication US20240024498A1 (JIANGSU HENGRUI PHARMACEUTICALS, published 2024)
